In the supplement of paper PMC12217912:
This is one part of the list. Sequences were assembled here from the parent chain. Inactive controls read about 0.05.

B1: TEV protease; numbered along this chain (parent)
chain: MGESLFKGPRDYNPISSSICHLTNESDGHTTSLYGIGFGPFIITNKHLFRRNNGTLVVQSLHGVFKVKDTTTLQQHLVDGRDMIIIRMPKDFPPFPQKLKFREPQREERICLVTTNFQTKSMSSMVSDTSCTFPSGDGIFWKHWIQTKDGQCGSPLVSTRDGFIVGIHSASNFTNTNNYFTSVPKNFMELLTNQEAQQWVSGWRLNADSVLWGGHKVFMVKPEEPFQPVKEATQL

Variants of: B1
Experiment: raw area under fraction-flipped curve 0-4 h after induction (AUC4h, not background-subtracted), DNA-recorder readout of cleavage of the substrate (dimensionless); higher = more cleavage of the substrate by the protease variant
Settings: temperature: 34 °C; time window: 0-4 h after rhamnose induction
Procedure: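 In vivo DNA recorder in E. coli TOP10(DE3) ΔrhaA at 34 °C. Each TEVp single-site mutant (parent TEVp 0) is paired with a single-site variant of the 7-mer TEVs (canonical ENLYFQ|S). The substrate sits between flexible linkers in a Bxb1-sfGFP-TEVs-SsrA fusion, so cleavage stabilises Bxb1 and speeds flipping of a recombination array, read by NGS. The value is the raw area under the fraction-flipped curve over 0-4 h after rhamnose induction (AUC4h), with ≥20 reads per time point. It is not background-subtracted; inactive controls average about 0.047.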
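Further: Bxb1 expression induced with 0.2% (w/v) L-rhamnose at OD600 near 0.5, cultures sampled hourly, flipped fraction per protease–substrate barcode pair counted by paired-end Illumina sequencing.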

Variant	area with substrate ENLYAQS	area with substrate ENLYCQS	area with substrate ENLYDQS	area with substrate ENLYEQS	area with substrate ENLYHQS	area with substrate ENLYKQS	area with substrate ENLYMQS	area with substrate ENLYNQS	area with substrate ENLYPQS	area with substrate ENLYRQS	area with substrate ENLYSQS	area with substrate ENLYTQS	area with substrate ENLYVQS	area with substrate ENLYWQS	area with substrate ENLYYQS	area with substrate ENLYIQS	area with substrate ENLYGQS	area with substrate ENLYLQS	area with substrate ENLYQQS
M83H	0.0559	0.0486	0.061	0.0604	0.0573	0.0505	0.0585	0.0544	0.0557	0.0837	0.061	0.0594	0.0549	0.0568	0.0568	–	–	–	–
K7R	0.0857	–	–	0.0577	–	0.0601	–	0.0711	–	0.06	–	–	–	0.0764	–	0.171	–	–	–
L235V	0.0547	–	0.0593	0.0581	–	–	0.0675	–	–	–	0.0694	0.0644	–	0.0754	0.0527	–	–	–	–
I167L	0.0752	0.0875	0.0549	0.0632	0.0661	0.0564	0.0684	0.0662	–	0.061	0.0812	–	–	0.0492	0.0616	0.106	0.0632	0.0795	0.0547
L5S	0.0022	–	–	0.0894	–	0.0454	–	0.0598	0.0813	0.0608	0.0863	0.0784	–	0.0999	–	0.153	–	–	–
Q59W	0.08	–	0.0742	0.0737	0.0746	–	0.105	0.0747	–	–	–	–	–	0.106	0.0872	0.151	0.0688	–	–
Q105V	0.0689	–	–	–	–	–	0.0908	0.0952	0.0649	0.0591	0.0895	–	0.156	–	0.0688	0.133	0.0635	–	–
G138I	0.084	–	–	0.0637	0.071	0.0551	–	0.0649	0.0667	–	–	–	–	0.0703	–	0.111	0.0555	–	–
E189Q	0.091	–	–	0.0944	0.0807	0.0624	–	0.0544	–	0.0548	0.076	–	0.106	0.0844	–	0.122	0.0742	–	0.0768
D137G	0.0748	0.0938	0.0571	0.0542	0.0592	0.0566	–	0.069	0.0655	0.0665	0.0707	–	–	0.0814	–	0.102	–	–	0.0651
K7M	0.0914	0.0937	–	0.0659	–	0.0645	0.0568	–	–	0.0737	–	0.071	–	–	0.0666	–	0.0686	–	0.0859
I86P	0.0364	–	–	0.0399	0.0383	–	0.0485	0.041	0.0427	–	0.0502	–	0.0302	–	0.04	0.0427	0.0434	0.0404	–
D149A	0.0742	–	0.0637	–	0.0573	–	0.0784	0.0637	0.0823	–	–	0.0671	–	0.0777	0.068	–	–	0.0808	0.0581
R51Q	0.0803	–	–	0.0651	0.082	0.038	0.102	0.0734	0.0737	0.069	0.0738	–	0.123	0.0779	0.062	0.157	0.0639	–	0.0597
F101M	0.108	0.0788	0.057	0.0587	0.0603	0.0766	0.0742	0.06	–	0.0529	0.0549	–	0.11	–	0.0468	0.108	–	–	–
V126K	0.0723	0.103	0.0612	0.0588	0.0701	0.0823	0.0821	0.0711	0.0788	–	0.0656	0.107	–	0.0736	–	0.15	0.0668	0.0932	–
M188F	0.0646	–	0.0577	–	0.0677	0.0811	0.0937	–	–	–	0.0619	–	0.116	–	0.0717	–	0.0625	–	0.0628
P89K	0.0679	–	0.0556	0.0526	0.0473	–	–	–	–	–	0.0783	–	0.124	–	–	0.131	–	–	–
S130A	0.0787	–	0.0751	0.0687	0.0664	–	0.0454	0.0641	–	–	0.073	–	0.132	0.0619	–	0.121	0.02	–	0.0595
A207F	0.0797	0.0672	0.0693	–	0.0946	0.0883	0.0492	0.066	–	–	–	–	0.0955	0.0831	0.0566	0.114	0.0539	0.071	0.0582
T23F	0.0664	–	0.0622	0.0704	0.0701	0.0622	–	–	0.0717	0.0703	0.0644	–	0.0866	0.0798	0.0713	0.116	0.0574	–	0.059
S127R	0.0565	–	–	0.0801	0.0785	0.0922	0.138	0.0762	0.0729	–	0.0742	0.0751	–	–	–	0.111	0.0461	0.0761	0.0743
D208A	0.0714	–	0.064	–	–	–	–	–	0.062	–	–	–	0.0569	–	–	0.0625	–	–	–
V78H	0.053	–	–	–	0.0527	0.0578	–	–	0.0607	–	0.0452	–	–	0.03	–	–	0.0518	0.0637	–
Y179P	0.0591	0.0558	0.0496	0.0449	0.0613	0.0344	–	0.0685	0.0492	0.0434	0.0458	0.0447	0.0553	–	–	0.0521	0.0675	–	–
R106C	0.072	0.0901	0.06	0.109	0.0686	0.0555	0.0899	0.0794	–	0.0532	–	–	–	–	0.0592	–	–	–	0.069
E195W	0.0692	–	–	0.0714	–	0.069	–	–	–	0.0622	0.0809	–	0.0834	0.0814	–	–	0.0631	–	–
S201M	0.0823	0.0664	0.0618	0.0701	0.0843	0.0587	0.0824	0.0605	0.0632	0.0549	0.0922	0.0743	0.117	0.081	–	0.108	0.0914	–	–
Q59S	0.087	–	0.0845	–	0.0629	0.0687	0.0527	–	0.0754	0.0538	0.0682	0.108	–	0.0779	–	0.119	–	–	0.069
P134M	0.0415	–	0.0548	0.0608	0.0675	–	–	–	0.0778	–	0.0696	0.0575	0.0931	0.0764	–	0.0993	–	–	–
